Values joined by “and” are separate entries in the source; they are usually repeats but may differ in a detail not shown here. Equal values may be shown once. The name of at least one read-out is uncertain.
Experiments:
E. coli ATCC 10536 = assay: BCT test (bacterial contact time), 45 s, log reduction / effect fraction; CI by Compusyn; format: cell-based, Escherichia coli
Protocol: (§1) E. coli, S. aureus, P. aeruginosa, and S. enterica: Separate suspensions of the E. coli ATCC 10536 strain, S. aureus ATCC 6538 strain, Pseudomonas aeruginosa ATCC 15442 strain, and the Salmonella enterica ATCC 10708 strain were prepared as follows: Stock cultures (stored at −80° C.) were thawed and sub-cultured onto Tryptic Soy Agar (TSA) agar plate media, and incubated at 37° C. for 24 h to obtain single colonies. Single colonies of the primary cultures were streaked onto TSA plates and incubated at 37° for 24 h to generate secondary cultures. Single colonies of secondary cultures picked and used to inoculate into 50 mL of TSB broth. The inoculated TSB broth was incubated at 37° C. at 180 rpm for 18 h. Aliquots (0.5 ml) of the 18 h culture were inoculated into 50 ml of fresh TSB broth, and incubated at 37° C. at 180 rpm for 2-3 hours. When the OD600 nm value of the broth reached 1-2, cells were harvested by centrifugation at 5000 rpm for 10 min, and then resuspended in fresh TSB broth at a concentration of 1-5×10^8 CFU/mL. These suspensions were used as the bacterial suspensions for the BCT test.
(§2) BCT Test: Test compositions at a range of concentrations (either combinations of more than one perfume ingredient, and comparative compositions comprising the single perfume ingredients) were prepared in ethanol. Five replicates of each test composition were added into 96-well microtiter plates (120 μl per well), with row B containing control compositions containing the ethanol solution alone. 120 μl of bacterial cell suspensions at a concentration of approximately 1×10^8 bacteria per mL (as prepared above) were added to each well of the microtiter plate. The bacterial suspensions were incubated with the test solutions for 45, 60, or 120 seconds. Following the incubation of the bacterial suspensions with the test solutions, serial dilutions of the bacterial suspensions were generated (three serial 1:10 dilutions, followed by 17 serial 1:2 dilutions), in multiwell microtiter plates.
(§3) Each plate was sealed and incubated at 37° C. under agitation (180 rpm). After incubation, the turbidity of the wells (OD600 nm) was determined using a Tecan microplate reader. Turbid wells were regarded as positive growth, due to the presence of viable cells. The total number of viable cells (log CFU) for each sample was calculated. And the log reduction for each test composition at the final concentration (dose) was calculated against the control sample of the ethanol solution.
(§4) Determination of Synergy via the Combination Index (CI): The CI was calculated using Compusyn software (ComboSyn, Inc., as created by Dr. Dorothy Chou in 2005), according to the manufacturer's instructions. The concentration of each test composition (combinations of more than one perfume ingredient, and comparative compositions comprising the single perfume ingredients used to generate the combination) and their corresponding effect fraction was entered, and the corresponding CI calculated.
(§5) When the calculated CI values were less than 0.9, the combination of perfume ingredients was regarded as having synergistic effect. When the calculated CI was between 1.0 a 0.9, the combination of perfume ingredients was regarded as having an additive effect. When the calculated CI was greater than 1.0, the combination of perfume ingredients was regarded as having an antagonistic effect.

S. haemolyticus 114126 = assay: BCT test (bacterial contact time), 120 s, log reduction / effect fraction; CI by Compusyn; format: cell-based, Staphylococcus haemolyticus; details: contact 120 s, 25% EtOH
Protocol: S. haemolyticus: Suspensions of the S. haemolyticus 114126 strain, isolated from skin, were prepared as follows: Stock cultures (stored at −80° C.) were thawed and sub-cultured onto TSA-TW80 agar plate media, and incubated at 37° C. for 24 h to obtain single colonies. Single colonies of the primary cultures were streaked onto fresh TSA-TW80 plates and incubated at 37° C. for 24 h to prepare secondary cultures. Single colonies of secondary cultures were picked and used to inoculate 50 mL of BHI-TW80 broth. The inoculated broth was incubated at 37° C. at 180 rpm for 18 h. Aliquots (0.5 ml) of the 18 h culture were inoculated into 50 ml of fresh BHI-TW80 broth, and incubated at 37° C. at 180 rpm for approximately 3 hours. When the OD 600 nm value of the broth reached 1-2, cells were harvested by centrifugation at 5000 rpm for 10 min, and then resuspended in fresh BHI-TW80 broth at a concentration of 1-5×10^8 CFU/mL. This suspension was used as the bacterial suspension for the BCT test.
as §2, §3, §4, §5

C. xerosis ATCC 373 = assay: as above; format: cell-based, Corynebacterium xerosis; details: contact 120 s, 25% EtOH
Protocol: C. xerosis: Suspensions of the C. xerosis ATCC 373 strain were prepared as follows: Stock cultures (stored at −80° C.) were thawed and subcultured onto Tryptic Soy Agar media with Tween 80 (TSA-TW80), and incubated at 37° C. for 48 h. The primary cultures were subcultured onto TSA-TW80 again, to prepare the secondary cultures. Single colonies of the secondary cultures were selected and used to inoculate 30 ml brain heart infusion broth with Tween 80 (BHI-TW80). The inoculated broth was incubated at 37° C. at 180 rpm for 24 h. Aliquots (1 ml) of the 24 h culture were inoculated into 30 ml of fresh BHI-TW80 broth media, and incubated at 37° C. at 180 rpm for 48 h. Aliquots (2-3 ml) of the 48 h culture were inoculated into four 50 ml of fresh BHI-TW80 broth media, and incubated at 37° C. 180 rpm for 4-6 hrs. When the OD 600 nm reached the target value of 1.6, cells were harvested by centrifugation at 5000 rpm for 10 min, and then resuspended in the same fresh BHI-TW80 at a concentration of 10^9 to 10^10 cfu/mL. This suspension was used as the bacterial suspension for the BCT test.
as §2, §3, §4, §5

[1] = tested on: Salmonella enterica ATCC 10708; assay: BCT test (bacterial contact time), 60 s, log reduction / effect fraction; CI by Compusyn; format: cell-based; details: BCT 60 s, in 25% EtOH
Protocol: as §1, §2, §3, §4, §5

[2] = tested on: Pseudomonas aeruginosa ATCC 15442; assay: as above; format: cell-based; details: BCT 60 s, in 25% EtOH
Protocol: as §1, §2, §3, §4, §5

S. aureus ATCC 6538 = assay: as above; format: cell-based, Staphylococcus aureus; details: 60 s, in 25% EtOH
Protocol: as §1, §2, §3, §4, §5

[3] = dose 0.05% w/v, contact 45 s, 20% EtOH
[4] = dose 0.07% w/v, contact 45 s, 20% EtOH
[5] = dose 0.08% w/v, contact 45 s, 20% EtOH
[6] = dose 0.09% w/v, contact 45 s, 20% EtOH
[7] = dose 0.060 % w/v, 45 s, in 20% EtOH

C=C(C)[C@@H]1CC=C(CO)CC1 [Perycorolle, (S)-(−)-(4-Isopropenyl-1-cyclohexenyl)methanol]
Effect fraction (E. coli ATCC 10536; [3]): 0.00
Effect fraction (E. coli ATCC 10536; [4]): 0.16
Effect fraction (E. coli ATCC 10536; [5]): 0.49
Effect fraction (E. coli ATCC 10536; [6]): 0.81
Effect fraction (E. coli ATCC 10536; dose 0.1% w/v, contact 45 s, 20% EtOH): 1.00
Effect fraction (S. haemolyticus 114126; dose 0.1% w/v): −0.03
Effect fraction (S. haemolyticus 114126; dose 0.125% w/v): 0.06
Effect fraction (S. haemolyticus 114126; dose 0.15% w/v): 0.26
Effect fraction (S. haemolyticus 114126; dose 0.175% w/v): 0.89
Effect fraction (S. haemolyticus 114126; dose 0.2% w/v): 1.00
Effect fraction (C. xerosis ATCC 373; dose 0.1% w/v): 0.04
Effect fraction (C. xerosis ATCC 373; dose 0.15% w/v): 0.53
Effect fraction (C. xerosis ATCC 373; dose 0.2% w/v): 0.75
Effect fraction (C. xerosis ATCC 373; dose 0.25% w/v): 1.00
Effect fraction (C. xerosis ATCC 373; dose 0.3% w/v): 1.00
Effect fraction ([1]; Dose 0.04 % w/v): 0.00
Effect fraction ([1]; Dose 0.05 % w/v): 0.04
Effect fraction ([1]; Dose 0.06 % w/v): 0.12
Effect fraction ([1]; Dose 0.07 % w/v): 0.29
Effect fraction ([1]; Dose 0.080 % w/v): 0.68
Effect fraction ([2]; Dose 0.05 % w/v): 0.24
Effect fraction ([2]; Dose 0.06 % w/v): 0.49
Effect fraction ([2]; Dose 0.07 % w/v): 0.67
Effect fraction ([2]; Dose 0.08 % w/v): 0.95
Effect fraction ([2]; Dose 0.1 % w/v): 1.00
Effect fraction (S. aureus ATCC 6538; dose 0.050 % w/v): 0.02
Effect fraction (S. aureus ATCC 6538; dose 0.075 % w/v): 0.20
Effect fraction (S. aureus ATCC 6538; dose 0.100 % w/v): 0.65
Effect fraction (S. aureus ATCC 6538; dose 0.125 % w/v): 0.92
Effect fraction (S. aureus ATCC 6538; dose 0.150 % w/v): 0.93

CC1=CCC(C(C)(C)O)CC1 (stereo not shown) [Terpineol Ord, 2-(4-Methylcyclohex-3-en-1-yl)propan-2-ol]
Effect fraction (E. coli ATCC 10536; dose 0.100 % w/v, 45 s, in 20% EtOH): 0.01
Effect fraction (E. coli ATCC 10536; dose 0.110 % w/v, 45 s, in 20% EtOH): 0.04
Effect fraction (E. coli ATCC 10536; dose 0.125 % w/v, 45 s, in 20% EtOH): 0.18
Effect fraction (E. coli ATCC 10536; dose 0.150 % w/v, 45 s, in 20% EtOH): 0.51
Effect fraction (E. coli ATCC 10536; dose 0.200 % w/v, 45 s, in 20% EtOH): 1.00
Effect fraction (S. haemolyticus 114126; dose 0.1% w/v): −0.02
Effect fraction (S. haemolyticus 114126; dose 0.2% w/v): 0.26
Effect fraction (S. haemolyticus 114126; dose 0.25% w/v): 0.78
Effect fraction (S. haemolyticus 114126; dose 0.3% w/v): 1.00
Effect fraction (S. haemolyticus 114126; dose 0.4% w/v): 1.00
Effect fraction (C. xerosis ATCC 373; dose 0.25% w/v): 0.45
Effect fraction (C. xerosis ATCC 373; dose 0.3% w/v): 0.61
Effect fraction (C. xerosis ATCC 373; dose 0.35% w/v): 0.94
Effect fraction (C. xerosis ATCC 373; dose 0.4% w/v): 1.00
Effect fraction ([1]; Dose 0.1 % w/v): 0.10
Effect fraction ([1]; Dose 0.10 % w/v): 0.70
Effect fraction ([1]; Dose 0.1375 % w/v): 1.00
Effect fraction ([1]; Dose 0.15 % w/v): 1.00
Effect fraction ([2]; Dose 0.125 % w/v): 0.57 and 0.37 and 0.60
Effect fraction ([2]; Dose 0.135 % w/v): 0.57 and 0.52 and 0.72
Effect fraction ([2]; Dose 0.15 % w/v): 0.87 and 0.68 and 1.00
Effect fraction ([2]; Dose 0.2 % w/v): 1.00
Log reduction ([2]; Dose 0.2 % w/v): 7.5 and 7.4
Effect fraction (S. aureus ATCC 6538; dose 0.125 % w/v): 0.11
Effect fraction (S. aureus ATCC 6538; dose 0.150 % w/v): 0.40 and 0.45
Effect fraction (S. aureus ATCC 6538; dose 0.175 % w/v): 0.66 and 0.78
Effect fraction (S. aureus ATCC 6538; dose 0.200 % w/v): 0.86 and 0.92
Effect fraction (S. aureus ATCC 6538; dose 0.250 % w/v): 1.00

CCCCCCC1CCC(=O)O1 (stereo not shown) [Decal]
Effect fraction (E. coli ATCC 10536; dose 0.050 % w/v, 45 s, in 20% EtOH): 0.01
Effect fraction (E. coli ATCC 10536; [3]): 0.00
Effect fraction (E. coli ATCC 10536; [7]): 0.1 and 0.06
Log reduction (E. coli ATCC 10536; [7]): 0.4
Effect fraction (E. coli ATCC 10536; dose 0.06% w/v, contact 45 s, 20% EtOH): 0.13
Effect fraction (E. coli ATCC 10536; dose 0.070 % w/v, 45 s, in 20% EtOH): 0.33 and 0.24 and 0.28
Effect fraction (E. coli ATCC 10536; [4]): 0.38
Effect fraction (E. coli ATCC 10536; dose 0.080 % w/v, 45 s, in 20% EtOH): 0.86 and 0.72 and 0.67
Effect fraction (E. coli ATCC 10536; [5]): 0.84
Effect fraction (E. coli ATCC 10536; dose 0.090 % w/v, 45 s, in 20% EtOH): 0.95
Effect fraction (E. coli ATCC 10536; [6]): 1.00
Effect fraction (S. haemolyticus 114126; dose 0.1% w/v): 0.06
Effect fraction (S. haemolyticus 114126; dose 0.125% w/v): 0.09
Effect fraction (S. haemolyticus 114126; dose 0.15% w/v): 0.16
Effect fraction (S. haemolyticus 114126; dose 0.175% w/v): 0.42
Effect fraction (S. haemolyticus 114126; dose 0.2% w/v): 0.60
Effect fraction (C. xerosis ATCC 373; dose 0.1% w/v): 0.00
Effect fraction (C. xerosis ATCC 373; dose 0.15% w/v): 0.32
Effect fraction (C. xerosis ATCC 373; dose 0.2% w/v): 0.65
Effect fraction (C. xerosis ATCC 373; dose 0.25% w/v): 0.77
Effect fraction (C. xerosis ATCC 373; dose 0.3% w/v): 0.86
Effect fraction ([1]; Dose 0.04 % w/v): 0.04
Effect fraction ([1]; Dose 0.05 % w/v): 0.09
Effect fraction ([1]; Dose 0.06 % w/v): 0.16
Effect fraction ([1]; Dose 0.07 % w/v): 0.28
Effect fraction ([1]; Dose 0.080 % w/v): 0.76
Effect fraction ([2]; Dose 0.05 % w/v): 0.17
Effect fraction ([2]; Dose 0.055 % w/v): 0.36
Effect fraction ([2]; Dose 0.06 % w/v): 0.38
Effect fraction ([2]; Dose 0.065 % w/v): 0.63
Effect fraction ([2]; Dose 0.07 % w/v): 0.70
Effect fraction (S. aureus ATCC 6538; dose 0.080 % w/v): 0.32
Effect fraction (S. aureus ATCC 6538; dose 0.100 % w/v): 0.66
Effect fraction (S. aureus ATCC 6538; dose 0.120 % w/v): 0.88
Effect fraction (S. aureus ATCC 6538; dose 0.160 % w/v): 0.95
Effect fraction (S. aureus ATCC 6538; dose 0.200 % w/v): 0.93

Source: patent US12419305B2, “Antimicrobial compositions” (Firmenich SA, priority 2018, dated 2025)
